Reference: PubChem BioAssay AID504832 (National Center for Advancing Translational Sciences (NCATS), 2011)
“And” between values parts separate entries of the source, which are not always exact repeats. Identical values can stand only once. Out of some 310,000 compounds screened, about 18,000 (5.8%) were called active. Inconclusive results, whose numbers are uncertain, are shown with a selection of clear calls. The call rests on the fitted dose curve; in most records, active means well fitted inhibition curve with a large enough effect; inconclusive means small, poorly fitted or top-dose-only effect, or another doubt; inactive means no such curve, though single readings can be large or run the other way. Potencies of inconclusive entries are left out as doubtful fits.
On the % scale 0 is the no-effect control and ±100 the full control effect; potency means the concentration at half of the fitted maximal effect; tags describe the fitted curve by direction and shape.

Experiment: Primary qHTS for delayed death inhibitors of the malarial parasite plastid, 48 hour incubation
Conditions: P. falciparum luciferase growth in erythrocytes; series mostly up to 28.7 µM; activity change, negative = inhibition: at the top concentration
Outline: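 Growth was read as firefly luciferase luminescence after a 48 h, 37 C, 5% CO2 exposure of compounds to reporter-bearing P. falciparum cultures (0.1% parasitemia, 2% hematocrit final) in Albumax-supplemented RPMI 1640.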
With `c1ccc(CN2CCC(N3CCC(N4CCCCCC4)CC3)CC2)cc1` the Potency was active: 13.1 µM.
With `Cc1noc(C)c1COc1ccc(C(=O)Nc2nnc(CC(C)C)s2)cc1` the Potency was inconclusive [inhibitor, single point].
In the case of `Cc1ccc(S(=O)(=O)N2CCCCC2)cc1NC(=O)COC(=O)C1CC2C=CC1C2` (configuration not stated), the “activity change, negative = inhibition” value is reported as inactive: -3%.
With `CN(CC(=O)NCC(c1ccccc1)N1CCCC1)S(=O)(=O)c1ccc(Cl)cc1` (configuration not stated) the Potency was inconclusive [inhibitor, single point].
In the case of `COc1ccccc1S(=O)(=O)Cc1ccc(C(=O)N2CCN(c3cccc(Cl)c3)CC2)o1`, the Potency is reported as active: 11.7 µM.
For `COc1ccc(/C=C/C(=O)c2ccc(OC)cc2OC)cc1`, the Potency was active: 6.57 µM and active: 3.01 µM.
In the case of `CCCCN(CC)C(=O)c1ccccc1Oc1ccccc1`, the Potency is reported as inconclusive [inhibitor, partial curve, poor fit].
In the case of `OCC1(Cc2ccccc2)CCN(Cc2cnc(-c3ccc(Cl)cc3)nc2)CC1`, the Potency is reported as inconclusive [inhibitor, single point].
With `Cc1cc(C)n(-c2ccc(C(=O)N3CCN(S(=O)(=O)c4ccc(C(C)C)cc4)CC3)cc2)n1` the Potency was active: 11.7 µM.
With `CN(Cc1ccc2c(c1)OCCO2)C(=O)CN1C(=O)NC2(CCCCC2)C1=O` the “activity change, negative = inhibition” value was inactive: 8.13%.
In the case of `O=C(Oc1nsnc1N1CCOCC1)N1CCOCC1`, the Potency is reported as inconclusive [inhibitor, single point].
In the case of `CCOc1cc(CNc2ccccc2SC)ccc1O`, the “activity change, negative = inhibition” value is reported as inactive: -9.38%.
In the case of `N#CC1=C2Nc3ccccc3N2C(=O)NC1(c1ccccc1)C(F)(F)F` (configuration not stated), the Potency is reported as inconclusive [inhibitor, partial curve, poor fit].
For `CC1CN(C)C(C)c2c1oc1ccc([N+](=O)[O-])cc21` (configuration not stated), the “activity change, negative = inhibition” value was inactive: 21.2%.
For `COc1ccccc1NS(=O)(=O)c1ccc(C)c(C(=O)NCCCN2CCCC2=O)c1`, the Potency was inconclusive [inhibitor, full curve, poor fit].
In the case of `O=C1C(Cc2ccccc2)S/C(=N/N=C/c2ccco2)N1c1ccccc1` (configuration not stated), the “activity change, negative = inhibition” value is reported as inactive: 8.05%.
In the case of `O=C(NC12CC3CC(CC(C3)C1)C2)C1CC(=O)N(c2ccccc2)C1` (configuration not stated), the Potency is reported as inconclusive [inhibitor, partial curve].
For `NC(=S)N/N=C/c1ccccc1[N+](=O)[O-]`, the “activity change, negative = inhibition” value was inactive: 18.3%.
For `CCCCN(C(=O)c1oc2ccc(OCC)cc2c1C)c1c(N)n(CC(C)C)c(=O)[nH]c1=O`, the Potency was inconclusive [inhibitor, partial curve].
For `CCn1c(NCCO)nc2c(c1=O)C(C)(CC)Cc1ccccc1-2` (configuration not stated), the “activity change, negative = inhibition” value was inactive: -6.73%.
With `Cc1ccc(OCCCOc2cccc3cccnc23)cc1C` the Potency was inconclusive [inhibitor, single point].
With `CCn1c(SCC(=O)Nc2sc3c(c2C#N)CCCC3)nnc1-c1ccncc1` the Potency was inconclusive [inhibitor, single point].
With `O=C(Nc1cccnc1)c1cc(Br)c(Br)s1` the Potency was inconclusive [inhibitor, partial curve, poor fit].
With `CCCc1cc(=O)[nH]c(Nc2ccc(Cl)cc2)n1` the Potency was inconclusive [inhibitor, full curve, poor fit].
With `O=C(NCC(=O)N(Cc1ccccc1)C(C(=O)NCC1CCCO1)c1ccccc1)c1ccco1` (configuration not stated) the “activity change, negative = inhibition” value was inactive: 25.3%.
For `CCn1ccc(C(=O)Oc2ccc(C(C)C)cc2)n1`, the “activity change, negative = inhibition” value was inactive: 14.6%.
With `CCN(CC)CCNC(=O)c1c(C)oc2cc(Br)c(OC)cc12` the Potency was inconclusive [inhibitor, partial curve].
For `CCCN1CCC(=O)N([C@H](CSc2ccccc2)c2ccccc2)CC1`, the Potency was inconclusive [inhibitor, partial curve, poor fit].
In the case of `COCCNC(=O)CCc1nnc(C2(c3ccc(Cl)cc3)CCC2)o1`, the “activity change, negative = inhibition” value is reported as inactive: 11.7%.
With `CCNS(=O)(=O)c1ccc(S(=O)(=O)N(Cc2ccccn2)C2CCCCC2)cc1` the Potency was inconclusive [inhibitor, single point].
For `COc1ccc(N/N=C/c2c(C(=O)O)ccc3ccccc23)cc1`, the Potency was active: 2.62 µM.
In the case of `O=C(c1ccc(S(=O)(=O)N2CCCC2)cc1)N1CCCC(C(F)(F)F)C1` (configuration not stated), the Potency is reported as inconclusive [inhibitor, single point].
With `S=C(NNc1ccnc2cc(Cl)ccc12)Nc1ccccc1Cl` the Potency was inconclusive [inhibitor, single point].
With `CCOC(=O)c1c(C)nc(C(Cl)(Cl)Cl)nc1N` the Potency was active: 13.1 µM.
With `O=c1c2cc3c(=O)n(CC4CCCO4)c(=O)c3cc2c(=O)n1CC1CCCO1` (configuration not stated) the “activity change, negative = inhibition” value was inactive: 0.809%.
For `O=C(NCCO)c1ccc2nc(Cc3cccc(Cl)c3)oc2c1`, the “activity change, negative = inhibition” value was inactive: 0%.
With `CC/C(=N\N1CCCCCC1)c1c(O)n(-c2ccc(C)cc2)c(=O)[nH]c1=O` the Potency was inconclusive [inhibitor, partial curve].
With `CC[N+]1(CC)CC2=Cc3ccccc3CC2C1` (configuration not stated) the Potency was inconclusive [inhibitor, partial curve].
For `COc1ccc(NC(=O)c2cc(-c3ccc(C)o3)nc3ccccc23)cc1OC`, the “activity change, negative = inhibition” value was inactive: -68.5%.
For `O=C(c1ccc(Cl)cc1)c1oc2ccccc2c1CS(=O)c1ccccc1` (configuration not stated), the Potency was inconclusive [inhibitor, full curve, poor fit].
With `Cc1onc(C(=O)N2CCN(Cc3ccccc3)CC2)c1[N+](=O)[O-]` the “activity change, negative = inhibition” value was inactive: -16.1%.
In the case of `Cc1ccc2cc3cc(C(=O)NCc4ccco4)oc3nc2c1`, the Potency is reported as active: 2.94 µM.
With `CN(C)S(=O)(=O)c1ccc(NC(=O)C2CC(=O)N(Cc3ccccc3Cl)C2)cc1` (configuration not stated) the Potency was inconclusive [inhibitor, partial curve, poor fit].
With `CC(=O)c1c(C)[nH]c(C(=O)OCC(=O)Nc2cccc(S(=O)(=O)N3CCCC3)c2)c1C` the Potency was active: 5.86 µM.
With `Cc1ccc(C(c2nnnn2Cc2cccs2)N2CCN(Cc3ccc4c(c3)OCO4)CC2)cc1` (configuration not stated) the Potency was inconclusive [inhibitor, single point].
For `Cc1ccc(/C=N/NS(=O)(=O)c2ccccc2)o1`, the “activity change, negative = inhibition” value was inactive: 8.16%.
In the case of `CCN(CC)P(=O)(Nc1ccc(SC(F)F)cc1)c1ccc(N(C)C)cc1NC(=O)c1ccco1` (configuration not stated), the Potency is reported as inconclusive [inhibitor, full curve, poor fit].
For `CCN(CC(=O)N1CCCC1)S(=O)(=O)c1ccc(F)cc1`, the “activity change, negative = inhibition” value was inactive: 78.3%.
With `Cc1cccc(C)c1N1CCN(c2cc(Cl)nc(N)n2)CC1` the activity change, negative = inhibition was inactive: -12.5% [at 0.00184 µM].
With `Cc1ccc(NC(=O)CSc2nc3ccccc3nc2N2CCOCC2)cc1` the “activity change, negative = inhibition” value was inactive: -8.94%.
For `CCOC(=O)C(=CNc1cc(C)nn1-c1ccccc1)C(=O)OCC`, the Potency was inconclusive [inhibitor, full curve, poor fit].
With `CCCCCCN(C(=O)CCCCCN1C(=O)NC(c2ccc(C(C)(C)C)cc2)C(C(=O)OCc2ccccc2)=C1C)C(C(=O)NCCCC)c1ccc(OCC(=O)OC)c(C(=O)OC)c1` (configuration not stated) the Potency was active: 2.08 µM.
In the case of `CC(OC(=O)c1n[nH]c2ccccc12)C(=O)NC1CCCCC1C` (configuration not stated), the Potency is reported as inconclusive [inhibitor, single point].
For `COc1ccc(C(CNC(=O)COc2ccc(Br)cc2F)N2CCCC2)cc1` (configuration not stated), the Potency was inconclusive [inhibitor, partial curve].
For `COc1ccc(/C=N\NC(=O)c2cccc(Br)c2)c(OC)c1`, the “activity change, negative = inhibition” value was inactive: -15.5%.
For `CCOc1ccc(OCc2ccc(C(=O)Nc3cccnc3)o2)cc1`, the Potency was active: 11.7 µM.
In the case of `Cc1cccc(-c2cc(C(=O)NCCCn3ccnc3)c3ccccc3n2)c1`, the Potency is reported as inconclusive [inhibitor, single point].
In the case of `CCC1CCCCN1CCCNC(=O)c1ccc2c(c1)N(Cc1ccc(F)cc1)C(=O)c1ccccc1S2=O` (configuration not stated), the Potency is reported as inconclusive [inhibitor, full curve].
In the case of `COc1ccc(Cl)cc1NC(=O)N1CCN(c2ccccc2OC)CC1`, the Potency is reported as active: 6.57 µM.
With `CN(C)c1oc(COc2ccc(F)cc2)nc1C#N` the “activity change, negative = inhibition” value was inactive: -2.1%.
For `Cc1cc(S(=O)(=O)NCc2ccccc2)ccc1OCC(=O)NCc1cccnc1`, the Potency was inconclusive [inhibitor, partial curve, poor fit].
In the case of `CCOc1ccc(N(CC(=O)N2CCCCC2)S(=O)(=O)c2ccc(Cl)cc2)cc1`, the Potency is reported as inconclusive [inhibitor, single point].
With `O=C(OC(C(=O)NC1CCCC1)c1ccccc1F)c1ccco1` (configuration not stated) the “activity change, negative = inhibition” value was inactive: 21.2%.
For `O=C(Nc1cccs1)Nc1ccc(Br)cc1F`, the Potency was inconclusive [inhibitor, single point].
For `CCOC(=O)C1CCCN(C(=O)c2ccc(CNS(=O)(=O)c3ccc(C)cc3)cc2)C1` (configuration not stated), the Potency was inconclusive [inhibitor, partial curve].
With `S=C(c1ccc(-c2ccccc2Cl)o1)N1CCOCC1` the “activity change, negative = inhibition” value was inactive: 129%.
With `Cn1c(SCc2nc(-c3cccs3)no2)nnc1C1CCCCC1` the Potency was inconclusive [inhibitor, single point].
In the case of `COc1cc2c(cc1OC)-c1cc(NC3CCCCC3)nc(=O)n1CC2`, the Potency is reported as inconclusive [inhibitor, single point].
With `Cc1nn(C)cc1[C@@H]1C[C@H]2CN(Cc3cccc(Cl)c3)C(=O)[C@]23CCCN13` the Potency was inconclusive [inhibitor, partial curve, poor fit].
For `CC(C)(O)C#Cc1ccc(CN2CCN(Cc3ccccc3)C(CCO)C2)s1` (configuration not stated), the Potency was inconclusive [inhibitor, full curve, poor fit].
With `COc1cc(OC)nc(NC(=O)NS(=O)(=O)c2ccc(OC(F)(F)F)cc2)n1` the Potency was inconclusive [inhibitor, full curve, poor fit].
With `O=C(NCc1ccccc1CN1CCCC1)c1ccc(Cl)c(N2CCCC2=O)c1` the Potency was inconclusive [inhibitor, single point].
